Measurements: PubChem BioAssay AID463173 (ICCB-Longwood Screening Facility, Harvard Medical School, 2010)
Out of some 52,000 compounds screened, about 1,700 (3.3%) were called active. No stated cut-off is given here; in the data, active means survival mostly below about 52% (no sharp cut-off); inactive means mostly above about 56%. Some of the results follow.

These compounds were tested on Wild type (assay: S. aureus survival, RN4220 and DeltatarO strains – OD600, teichoic acid synthesis inhibitors, primary screen (AID 463173)). Conditions: S. aureus RN4220 wild type/DeltatarO growth, OD600, 18 h, hits give low values, screened at 18.75 µg/mL (by protocol).
For `Cc1cccc(CNC(=O)CCCn2c(=O)c3cccn3c3ccc(F)cc32)c1`, the survival was inactive: 96%. For `Cc1csc2nc(COc3ccccc3NC(=O)c3ccc(C(C)(C)C)cc3)cc(=O)n12`, the survival was inactive: 80%. `Cc1ccc(CN2CCN(CC(=O)Nc3ccc(C)c(C)c3)S2(=O)=O)cc1` was tested, and the survival was inactive: 85%. For `N#Cc1cccc(NC(=O)C2CCN(S(=O)(=O)c3ccc4[nH]c(=O)ccc4c3)CC2)c1`, the survival was inactive: 78%. For `Cc1ccccc1-n1nc(CO)c(C(=O)NCc2cccs2)n1`, the survival was inactive: 90%. With `O=C(Cn1c(=O)n(-c2ccccc2Cl)c(=O)c2sc3ccccc3c21)NC1CCCCC1` the survival was inactive: 132%. `Cc1c(NC(=O)c2nc3ccccc3nc2N2CCCCC2)cccc1[N+](=O)[O-]` was tested, and the survival was inactive: 85%. `Cc1ccccc1OC(=O)CSc1nnc(-c2ccc(F)cc2)o1` was tested, and the survival was inactive: 84%. With `CCOC(=O)c1cc(C)n(CC2CCC(C(=O)Nc3ccc(C)c(F)c3)CC2)c1C` (stereo unspecified) the survival was inactive: 75%. In the case of `O=C(O)c1cc2n(n1)C(C(F)(F)F)CC(C1CC1)N2` (stereo unspecified), the survival is reported as inactive: 103%. `Cc1ccc(C(=O)Nc2ccc(-c3nc4ccccc4s3)cc2C)cc1C` was tested, and the survival was inactive: 73%. In the case of `Cc1ccc(OCC(=O)N2CCC(C)CC2)cc1C`, the survival is reported as inactive: 109%. `CCNC(=S)N1CCC(NC(=O)c2ccccc2)CC1` was tested, and the survival was inactive: 107%. In the case of `COc1ccc(N2CC(NC(=O)CCCc3ccccc3)CC2=O)cc1` (stereo unspecified), the survival is reported as active: 0%. For `COC(=O)c1ccccc1NC(=O)Nc1nnc(N2CCC(C)CC2)s1`, the survival was inactive: 86%. With `CCOc1cc(CNC(=O)NC2COc3ccc(OC)cc3C2)cc(OCC)c1OCC` (stereo unspecified) the survival was inactive: 73%. With `CCOc1ccc(CNCc2c(C(=O)O)n(Cc3ccc(C)cc3)c3cc(C)ccc23)cc1` the survival was inactive: 21%. In the case of `Cc1c(Cl)cccc1NC(=O)CN(CCc1ccccc1)S(=O)(=O)c1ccccc1`, the survival is reported as inactive: 71%. `Cc1ccccc1OCC(=O)Nc1ccc(-c2nc3ncccc3o2)cc1` was tested, and the survival was inactive: 69%. For `CCCCN(CC)CCNC(=O)c1cc2c(=O)[nH]c3ccccc3c2n1C`, the survival was inactive: 74%. `Cc1cccc(C(=O)N2CCc3cc(CNS(=O)(=O)c4ccc(Cl)s4)ccc32)c1` was tested, and the survival was inactive: 81%. `CN(C)c1nc(OCCNC(=O)COc2ccccc2Cl)nc(N(C)C)n1` was tested, and the survival was inactive: 107%. For `Cc1ccccc1NS(=O)(=O)c1ccc2[nH]cc(C(=O)N3CCCCC3)c(=O)c2c1`, the survival was inactive: 68%. For `COc1ccc(C)cc1-n1nnc(-c2nc(-c3ccccc3Cl)no2)c1N`, the survival was inactive: 91%. With `O=C(NCc1ccccc1)c1ccc(CSc2nc3cccnc3n2Cc2cccc(F)c2)cc1` the survival was inactive: 78%. `CC(C)n1c(SCc2ccccc2)nnc1C1CCCN(CC(N)=O)C1` (stereo unspecified) was tested, and the survival was inactive: 112%. In the case of `CCCCn1nc(NC(=O)c2cccc(Cl)c2)c2cc3ccccc3nc21`, the survival is reported as inactive: 86%. In the case of `CCCCn1c(NCc2ccc(OC)cc2O)nc2ccccc21`, the survival is reported as inactive: 88%. For `O=C(NCc1ccc(F)cc1)c1ccc2c(O)c(S(=O)(=O)c3ccccc3)c(=O)[nH]c2c1`, the survival was inactive: 88%. With `Cc1ccccc1CN1C(=O)c2ccccc2Sc2ccc(C(=O)N3CCCC3)cc21` the survival was inactive: 85%. In the case of `COc1ccc(N=c2oc3ccc(Cl)cc3cc2C(=O)NCc2ccco2)cc1OC`, the survival is reported as inactive: 111%. `Cc1c(C(N)=O)sc2ncn(Cc3ccccc3)c(=O)c12` was tested, and the survival was inactive: 112%. `CC(C)c1ccc(C(=O)Nc2cc(-c3ccccc3F)nn2-c2ccccc2)cc1` was tested, and the survival was inactive: 73%. `CCN(C(=O)c1coc(=O)c2ccccc12)c1ccccc1C` was tested, and the survival was inactive: 124%. With `Cc1ccc(-c2nnn3c2nc(NCCc2ccc(Cl)cc2)c2ccccc23)cc1` the survival was inactive: 85%. For `COc1ccccc1N1CCN(S(=O)(=O)c2ccc(S(=O)(=O)NC3CCCC3)cc2)CC1`, the survival was inactive: 112%. In the case of `O=Nc1[nH]c(O)c2cc(Br)ccc12`, the survival is reported as inactive: 110%. In the case of `CN1CCN(S(=O)(=O)c2cccc3nsnc23)CC1`, the survival is reported as inactive: 103%. `CC1Cc2cc(CSC(=N)N)ccc2O1` (stereo unspecified) was tested, and the survival was inactive: 108%. `C=CCNC(=O)CN1CCC(O)(c2ccccc2F)CC1` was tested, and the survival was inactive: 100%. In the case of `CCCOc1ccc(CNC(=O)Cn2ncn3c(cc4sc(CC)cc43)c2=O)cc1`, the survival is reported as inactive: 93%. With `Cc1ccc(-c2nc3ccccn3c2Nc2ccccc2C)s1` the survival was active: 11%. For `Cc1c(C(=O)N2CCCCCC2)c(S(=O)(=O)NCc2ccc(Br)cc2)c(C)n1C`, the survival was inactive: 95%. `Cc1cc(C)nc(SCC(=O)OCN2C(=O)c3ccccc3C2=O)n1` was tested, and the survival was inactive: 113%. With `COc1ccc(Nc2cc(C(=O)NC3CCC(C)CC3)c3ccccc3n2)cc1OC` (stereo unspecified) the survival was inactive: 82%. In the case of `CCOc1ccc(CNC(=O)c2ccc3nc(C(C)C)oc3c2)cc1`, the survival is reported as inactive: 81%. With `COC(=O)c1ccc(NC(=O)NCCn2nnc3cc(S(=O)(=O)N(C)C)ccc32)cc1` the survival was inactive: 55%. `Cc1nn(CC(=O)O)c2c1C1C(C2)C1(C)C` (stereo unspecified) was tested, and the survival was inactive: 109%. With `CCOc1ccccc1C(=O)Nc1c(C(=O)Nc2ccc(F)cc2)oc2ccccc12` the survival was inactive: 76%. In the case of `Cn1c(=O)c(=O)n(C)c2cc(S(=O)(=O)CCC(=O)Nc3ccc(F)cc3)ccc21`, the survival is reported as inactive: 89%. For `Oc1ccc2ccccc2c1CN1CCCC1`, the survival was inactive: 103%. `CCOc1ccc(C2Nc3c(C)cccc3-c3cc(C)nn32)cc1` (stereo unspecified) was tested, and the survival was active: -14%. In the case of `COc1ccc(S(=O)(=O)NCC(c2ccco2)S(=O)(=O)c2cccs2)cc1C` (stereo unspecified), the survival is reported as inactive: 88%. With `O=C1Nc2ccccc2C12Nc1ccccc1CO2` (stereo unspecified) the survival was inactive: 111%. In the case of `O=C(C1CCN(Cc2ccccc2)CC1)N1CCN(c2ccccc2F)CC1`, the survival is reported as inactive: 96%. `CC1=NN(C(=O)c2cccnc2)C(O)(c2ccccc2)C1` (stereo unspecified) was tested, and the survival was inactive: 96%. For `Cc1oc2ncnc(N3CCOCC3)c2c1C(=O)N(Cc1ccccc1)C(C)C`, the survival was inactive: 55%. In the case of `CCOc1ccc(NC(=O)c2cnn3c2NC(c2cccc(OC)c2)=CC3c2ccccc2)cc1` (stereo unspecified), the survival is reported as inactive: 63%. In the case of `Cc1ccc(C2=NN(CC(=O)NCCC(C)C)C(=O)CC2)cc1`, the survival is reported as active: 10%. In the case of `CCOC(=O)c1cc(OC(=O)c2ccc(C)cc2)n(-c2ccccc2)n1`, the survival is reported as inactive: 135%. In the case of `COc1cccc(-c2nnc(-c3ccccc3NC(=O)c3cccc(C(F)(F)F)c3)o2)c1`, the survival is reported as inactive: 90%.
